# Source: the supplement of paper PMC8728848
# The list shows a part of the results.
# B1: B1257 (Bifidobacterium sp) (protein)
# chain: MKKSIRLVAAIAALAMTAGISACGSSTNGNQAKSDVTAQDVETALTDTSKNVELTVWAYSAKQMEPTVKAFEKKYPHIKINFVNTGAAGDHFTKFQNVVQAQKDIPDVVQMGANKFQQFAVSGALLNFANDSIEKAWSKLYTKTAWAQVHYAGGLYGAPQDATPLANYVRKDILDEHNLQVPESWEDIYNEGIKLHKEDSNKYMGILGSDISFFTNLYRSVGARLWKVNSVDDVELTMNSGKAKEFTEFLQKCLKDGVLEGGTVFTDEFNRSINDGRYATFINENWMGNTYKEQNPSLKGKMVVAAPPSWKGQPYQSSSVGSMMSVSAACPKEKQAAALAFINWLDSDKDAIQSWQDTNNGNFFMAASVYQDDENQRNKKETDGYYANDDVNAVYFDSMDKVNTDWEYLPFMSQVEVVFNDVIVPQMNENGDLVGAMAKAQQELKTYAKDNGFKVTTDAD
# Key:
# Test in all cases: glycan array binding signal (z-score within array); higher = stronger binding
# Conditions in all cases: glycan notation: IUPAC condensed, linker removed
# [1] = target: Fuc(a1-2)Gal
# Procedure, shortened: (§1)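 Columns mapping to the same glycan were averaged after glycan names were converted to IUPAC-condensed notation. The data come from 3228 arrays in the Consortium for Functional Glycomics database, limited to those with an available protein sequence. Binding is reported as a within-array Z-score averaged across arrays of one protein sequence and across linkers.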
# [2] = target: Fuc(a1-2)Gal(b1-3)GalNAc
# Procedure, shortened: as §1
# [3] = target: Fuc(a1-2)Gal(b1-3)GalNAc(a1-3)[Fuc(a1-2)]Gal(b1-4)Glc
# Procedure, shortened: as §1
# [4] = target: Fuc(a1-2)Gal(b1-3)GalNAc(a1-3)[Fuc(a1-2)]Gal(b1-4)GlcNAc
# Procedure, shortened: as §1
# [5] = target: Fuc(a1-2)Gal(b1-3)GalNAc(b1-3)Gal
# Procedure, shortened: as §1
# [6] = target: Fuc(a1-2)Gal(b1-3)GalNAc(b1-3)Gal(a1-4)Gal(b1-4)Glc
# Procedure, shortened: as §1
# [7] = target: Fuc(a1-2)Gal(b1-3)GalNAc(b1-4)[Neu5Ac(a2-3)]Gal(b1-4)Glc
# Procedure, shortened: as §1
# [8] = target: Fuc(a1-2)Gal(b1-3)GlcNAc
# Procedure, shortened: as §1
# [9] = target: Fuc(a1-2)Gal(b1-3)GlcNAc(b1-2)Man(a1-3)[Fuc(a1-2)Gal(b1-3)GlcNAc(b1-2)Man(a1-6)]Man(b1-4)GlcNAc(b1-4)GlcNAc
# Procedure, shortened: as §1
# [10] = target: Fuc(a1-2)Gal(b1-3)GlcNAc(b1-2)Man(a1-3)[Fuc(a1-2)Gal(b1-3)GlcNAc(b1-2)Man(a1-6)]Man(b1-4)GlcNAc(b1-4)[Fuc(a1-6)]GlcNAc
# Procedure, shortened: as §1
# [11] = target: Fuc(a1-2)Gal(b1-3)GlcNAc(b1-3)Gal(b1-4)Glc
# Procedure, shortened: as §1
# [12] = target: Fuc(a1-2)Gal(b1-3)GlcNAc(b1-3)GalNAc
# Procedure, shortened: as §1
# [13] = target: Fuc(a1-2)Gal(b1-3)GlcNAc(b1-3)[Fuc(a1-2)Gal(b1-3)GlcNAc(b1-6)]GalNAc
# Procedure, shortened: as §1
# [14] = target: Fuc(a1-2)Gal(b1-3)GlcNAc(b1-3)[Gal(b1-4)GlcNAc(b1-6)]Gal(b1-4)Glc
# Procedure, shortened: as §1
# [15] = target: Fuc(a1-2)Gal(b1-3)GlcNAc(b1-3)[Neu5Ac(a2-6)Gal(b1-4)GlcNAc(b1-6)]Gal(b1-4)Glc
# Procedure, shortened: as §1
# [16] = target: Fuc(a1-2)Gal(b1-3)GlcNAc6S
# Procedure, shortened: as §1
# [17] = target: Fuc(a1-2)Gal(b1-3)[Fuc(a1-4)]GlcNAc
# Procedure, shortened: as §1
# [18] = target: Fuc(a1-2)Gal(b1-3)[Fuc(a1-4)]GlcNAc(b1-2)Man(a1-3)[Fuc(a1-2)Gal(b1-3)[Fuc(a1-4)]GlcNAc(b1-2)Man(a1-3)]Man(b1-4)GlcNAc(b1-4)GlcNAc
# Procedure, shortened: as §1
# [19] = target: Fuc(a1-2)Gal(b1-3)[Fuc(a1-4)]GlcNAc(b1-2)Man(a1-3)[Fuc(a1-2)Gal(b1-3)[Fuc(a1-4)]GlcNAc(b1-2)Man(a1-6)]Man(b1-4)GlcNAc(b1-4)[Fuc(a1-6)]GlcNAc(b1-4)[Fuc(a1-6)]GlcNAc
# Procedure, shortened: as §1
# [20] = target: Fuc(a1-2)Gal(b1-3)[Fuc(a1-4)]GlcNAc(b1-3)[Fuc(a1-3)[Gal(b1-4)]GlcNAc(b1-6)]Gal(b1-4)Glc
# Procedure, shortened: as §1
# [21] = target: Fuc(a1-2)Gal(b1-3)[Fuc(a1-4)]GlcNAc(b1-3)[Gal(b1-4)GlcNAc(b1-6)]Gal(b1-4)Glc
# Procedure, shortened: as §1
# [22] = target: Fuc(a1-2)Gal(b1-4)Glc
# Procedure, shortened: as §1
# [23] = target: Fuc(a1-2)Gal(b1-4)Glc6S
# Procedure, shortened: as §1
# [24] = target: Fuc(a1-2)Gal(b1-4)GlcNAc
# Procedure, shortened: as §1
# [25] = target: Fuc(a1-2)Gal(b1-4)GlcNAc(b1-2)Man
# Procedure, shortened: as §1
# [26] = target: Fuc(a1-2)Gal(b1-4)GlcNAc(b1-2)Man(a1-3)[Fuc(a1-2)Gal(b1-4)GlcNAc(b1-2)Man(a1-6)]Man(b1-4)GlcNAc(b1-4)GlcNAc
# Procedure, shortened: as §1
# [27] = target: Fuc(a1-2)Gal(b1-4)GlcNAc(b1-2)Man(a1-3)[Fuc(a1-2)Gal(b1-4)GlcNAc(b1-2)Man(a1-6)]Man(b1-4)GlcNAc(b1-4)[Fuc(a1-6)]GlcNAc
# Procedure, shortened: as §1
# [28] = target: Fuc(a1-2)Gal(b1-4)GlcNAc(b1-2)[Fuc(a1-2)Gal(b1-4)GlcNAc(b1-4)]Man(a1-3)[Fuc(a1-2)Gal(b1-4)GlcNAc(b1-2)Man(a1-6)]Man(b1-4)GlcNAc(b1-4)GlcNAc
# Procedure, shortened: as §1
# [29] = target: Fuc(a1-2)Gal(b1-4)GlcNAc(b1-3)Gal(b1-4)GlcNAc
# Procedure, shortened: as §1
# [30] = target: Fuc(a1-2)Gal(b1-4)GlcNAc(b1-3)Gal(b1-4)GlcNAc(b1-2)Man(a1-3)[Fuc(a1-2)Gal(b1-4)GlcNAc(b1-3)Gal(b1-4)GlcNAc(b1-2)Man(a1-6)]Man(b1-4)GlcNAc(b1-4)GlcNAc
# Procedure, shortened: as §1
# [31] = target: Fuc(a1-2)Gal(b1-4)GlcNAc(b1-3)Gal(b1-4)GlcNAc(b1-3)Gal(b1-4)GlcNAc
# Procedure, shortened: as §1
# [32] = target: Fuc(a1-2)Gal(b1-4)GlcNAc(b1-3)GalNAc
# Procedure, shortened: as §1
# [33] = target: Fuc(a1-2)Gal(b1-4)GlcNAc(b1-3)[Fuc(a1-2)Gal(b1-4)GlcNAc(b1-6)]GalNAc
# Procedure, shortened: as §1
# [34] = target: Fuc(a1-2)Gal(b1-4)GlcNAc(b1-3)[Fuc(a1-3)[Gal(b1-4)]GlcNAc(b1-6)]Gal(b1-4)Glc
# Procedure, shortened: as §1
# [35] = target: Fuc(a1-2)Gal(b1-4)GlcNAc(b1-6)GalNAc
# Procedure, shortened: as §1
# [36] = target: Fuc(a1-2)Gal(b1-4)GlcNAc6S
# Procedure, shortened: as §1
# [37] = target: Fuc(a1-2)Gal(b1-4)[Fuc(a1-3)]GlcNAc
# Procedure, shortened: as §1
# [38] = target: Fuc(a1-2)Gal(b1-4)[Fuc(a1-3)]GlcNAc(b1-2)Man(a1-3)[Fuc(a1-2)Gal(b1-4)[Fuc(a1-3)]GlcNAc(b1-2)Man(a1-6)]Man(b1-4)GlcNAc(b1-4)[Fuc(a1-6)]GlcNAc
# Procedure, shortened: as §1
# [39] = target: Fuc(a1-2)Gal(b1-4)[Fuc(a1-3)]GlcNAc(b1-2)[Fuc(a1-2)Gal(b1-4)[Fuc(a1-3)]GlcNAc(b1-4)]Man(a1-3)[Fuc(a1-2)Gal(b1-4)[Fuc(a1-3)]GlcNAc(b1-2)Man(a1-6)]Man(b1-4)GlcNAc(b1-4)GlcNAc
# Procedure, shortened: as §1
# [40] = target: Fuc(a1-2)Gal(b1-4)[Fuc(a1-3)]GlcNAc(b1-3)Gal(b1-4)[Fuc(a1-3)]GlcNAc
# Procedure, shortened: as §1
# [41] = target: Fuc(a1-2)Gal(b1-4)[Fuc(a1-3)]GlcNAc(b1-3)Gal(b1-4)[Fuc(a1-3)]GlcNAc(b1-3)Gal(b1-4)[Fuc(a1-3)]GlcNAc
# Procedure, shortened: as §1
# [42] = target: Fuc(a1-2)Gal(b1-4)[Fuc(a1-3)]GlcNAc(b1-3)GalNAc
# Procedure, shortened: as §1
# [43] = target: Fuc(a1-2)Gal(b1-4)[Fuc(a1-3)]GlcNAc(b1-3)[Neu5Ac(a2-6)Gal(b1-4)GlcNAc(b1-6)]Gal(b1-4)Glc
# Procedure, shortened: as §1
# [44] = target: Fuc(a1-2)Gal3S(b1-4)GlcNAc
# Procedure, shortened: as §1
# [45] = target: Fuc(a1-2)Gal6S(b1-3)GlcNAc
# Procedure, shortened: as §1
binder,measurement,setting,value
B1,glycan array binding signal (z-score),[1],23.9
same,glycan array binding signal (z-score),[2],-0.081
same,glycan array binding signal (z-score),[3],-0.012
same,glycan array binding signal (z-score),[4],-0.127
same,glycan array binding signal (z-score),[5],-0.117
same,glycan array binding signal (z-score),[6],-0.023
same,glycan array binding signal (z-score),[7],-0.058
same,glycan array binding signal (z-score),[8],-0.125
same,glycan array binding signal (z-score),[9],0.217
same,glycan array binding signal (z-score),[10],0.153
same,glycan array binding signal (z-score),[11],-0.03
same,glycan array binding signal (z-score),[12],-0.018
same,glycan array binding signal (z-score),[13],-0.044
same,glycan array binding signal (z-score),[14],-0.141
same,glycan array binding signal (z-score),[15],-0.127
same,glycan array binding signal (z-score),[16],-0.082
same,glycan array binding signal (z-score),[17],-0.158
same,glycan array binding signal (z-score),[18],0.089
same,glycan array binding signal (z-score),[19],0.072
same,glycan array binding signal (z-score),[20],-0.097
same,glycan array binding signal (z-score),[21],0.009
same,glycan array binding signal (z-score),[22],3.8
same,glycan array binding signal (z-score),[23],0.089
same,glycan array binding signal (z-score),[24],-0.085
same,glycan array binding signal (z-score),[25],-0.088
same,glycan array binding signal (z-score),[26],-0.069
same,glycan array binding signal (z-score),[27],0.05
same,glycan array binding signal (z-score),[28],0.166
same,glycan array binding signal (z-score),[29],-0.132
same,glycan array binding signal (z-score),[30],0.066
same,glycan array binding signal (z-score),[31],0.071
same,glycan array binding signal (z-score),[32],0.181
same,glycan array binding signal (z-score),[33],-0.107
same,glycan array binding signal (z-score),[34],-0.058
same,glycan array binding signal (z-score),[35],0.043
same,glycan array binding signal (z-score),[36],-0.173
same,glycan array binding signal (z-score),[37],-0.084
same,glycan array binding signal (z-score),[38],-0.051
same,glycan array binding signal (z-score),[39],0.025
same,glycan array binding signal (z-score),[40],-0.093
same,glycan array binding signal (z-score),[41],0.052
same,glycan array binding signal (z-score),[42],0.086
same,glycan array binding signal (z-score),[43],-0.102
same,glycan array binding signal (z-score),[44],-0.141
same,glycan array binding signal (z-score),[45],-0.148
